# The list shows a part of the results.
# Target: T1, OsWOX13 (Oryza sativa, UniProt Q5QMM3 1-267)
# T1 sequence: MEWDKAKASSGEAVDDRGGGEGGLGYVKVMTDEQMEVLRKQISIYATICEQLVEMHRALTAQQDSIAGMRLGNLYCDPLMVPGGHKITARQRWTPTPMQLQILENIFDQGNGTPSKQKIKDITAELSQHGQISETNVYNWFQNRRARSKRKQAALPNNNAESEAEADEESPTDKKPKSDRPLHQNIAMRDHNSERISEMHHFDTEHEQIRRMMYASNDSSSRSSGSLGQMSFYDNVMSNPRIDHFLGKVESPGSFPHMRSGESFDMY
# Assay: protein-binding microarray (RPBM); PBS, 2% BSA, 51.3 ng/ul salmon testes DNA, 50 uM zinc acetate, 200 nM TF, 25 C, 1 h; high values mean tight binding
# Conditions: protein: recombinant; tags: N-terminal polyhistidine and DsRed monomer fusion (pET32a); label: CyDye5-dUTP incorporated in the synthesized complementary strand; 3' TTTTT single-stranded linker to array surface; dsDNA, one strand shown
# Procedure, shortened: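 Binding signal is reported as fluorescence intensity per feature (arbitrary units) from an Axon 4000B scanner. Incubation used 200 nM of each Ni–NTA-purified, N-terminally polyhistidine- and DsRed-fused transcription factor from E. coli BL21-CodonPlus on a double-stranded custom Agilent array for 1 h at 25 °C, with 50 µM zinc acetate in the buffer, followed by washing.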
row,Sequence,binding signal
1,AATAGATTAATAGACATAACACAGTGCGGCAATTCAATCACGGAGTCACCTAGTGCAG,21400 fluorescence intensity (a.u.)
2,ATATATAATCAATTAAATATTAACTATTAAAGATTTGAAACGGAGTCACCTAGTGCAG,6080 fluorescence intensity (a.u.)
3,GAAATAAATTATAGATATAATTACTATATGCTTACATGTTCGGAGTCACCTAGTGCAG,32900 fluorescence intensity (a.u.)
4,TTGTTAAATTGAAAAGTGTAATAGAAAGGTTGTTGACGTGCGGAGTCACCTAGTGCAG,40200 fluorescence intensity (a.u.)
5,GTTAATTAGCTGGAGTAGTTTGTTCAGTCACTCCACTATACGGAGTCACCTAGTGCAG,35600 fluorescence intensity (a.u.)
6,ATATCACGGCTAATTATCCCAAAATTAATTCAAAACGAGTCGGAGTCACCTAGTGCAG,10800 fluorescence intensity (a.u.)
7,CTTTAATTGAAAGTGGCATTTTAACGAGGCCCACTCCCAGCGGAGTCACCTAGTGCAG,45700 fluorescence intensity (a.u.)
8,ACTGTTAAATTAAGTAGGAGCACTGTGTGTGATCTTTTGGCGGAGTCACCTAGTGCAG,3720 fluorescence intensity (a.u.)
9,TCATTTCATAATTAATTTCCACCATACAGCCTGGAGGTTACGGAGTCACCTAGTGCAG,13900 fluorescence intensity (a.u.)
10,TTGAAATTGAAGATGATGTGACTGAAAAGTTGCGTGTGTACGGAGTCACCTAGTGCAG,31900 fluorescence intensity (a.u.)
11,GTCAACCAATGATTGCTACTTCCCTATGCACGTATTGTATCGGAGTCACCTAGTGCAG,25200 fluorescence intensity (a.u.)
12,AGTTCTCTGATTTTGGATGGGGATTTGCTTGATGGATCCGCGGAGTCACCTAGTGCAG,7130 ± 903 fluorescence intensity (a.u.)
13,GCAAATATAAGATTGCTTCAAGATTTGTGCTCTGACCCACCGGAGTCACCTAGTGCAG,3240 fluorescence intensity (a.u.)
14,ATTAATAAATTAGAATTATATTCTTATGGTTTATATGGACCGGAGTCACCTAGTGCAG,29800 fluorescence intensity (a.u.)
15,TTTGATTTGATTTGATTTGATTGAATTAATTTGAGTCCGACGGAGTCACCTAGTGCAG,65400 fluorescence intensity (a.u.)
16,CACCATCAATTCCATATAAACTGGACTAGAGCTATTACCTCGGAGTCACCTAGTGCAG,5700 fluorescence intensity (a.u.)
17,TTCGGATTGATTGTTGAGACAAATCTCGTAGAACACGGAACGGAGTCACCTAGTGCAG,62900 fluorescence intensity (a.u.)
18,ATGTCTATCAACCCTTTATTTATGTTATTGTTCATGTTTGCGGAGTCACCTAGTGCAG,4160 fluorescence intensity (a.u.)
19,GTAACGGGATGATTGAAGCTACAACGAGAATGGCAACGTCCGGAGTCACCTAGTGCAG,22200 fluorescence intensity (a.u.)
20,CTCCTTAATCACAATTTAACAAACTCGAGGGGCTAAAACGCGGAGTCACCTAGTGCAG,18200 fluorescence intensity (a.u.)
21,CATAATTAACATACTCCTCCATCCCACAATATAAGGGATTCGGAGTCACCTAGTGCAG,23900 fluorescence intensity (a.u.)

row,Sequence,binding signal
1,TTGATTAAAATCTAATATCAACATTTGCTCCAAATGTTCACGGAGTCACCTAGTGCAG,13800 fluorescence intensity (a.u.)
2,GATTTACATTGATTATGATGTTGGGATGTTTCATATTCAACGGAGTCACCTAGTGCAG,8900 fluorescence intensity (a.u.)
3,ATCTAATTTTGCTTATAGCTGCTGCTGATGCTTCATATTTCGGAGTCACCTAGTGCAG,3800 fluorescence intensity (a.u.)
4,ATTAATTATGTCATAAACTGTTGTTGATTTGTGCCAGTTTCGGAGTCACCTAGTGCAG,39500 fluorescence intensity (a.u.)
5,AGAATCAGGGACTTAATTTGCAATTAGTAATTTAAAACAGCGGAGTCACCTAGTGCAG,14800 fluorescence intensity (a.u.)
6,TTCAAATTGTGATCAGCTTCCAAGTTCCAACCCATCCCCTCGGAGTCACCTAGTGCAG,6680 fluorescence intensity (a.u.)
7,GATGATTGACTTATTATGCTATAATAATATGCTGAATGAACGGAGTCACCTAGTGCAG,40600 fluorescence intensity (a.u.)
8,ACTGATAATCTATTTGTTAGTAAAAGATTTTGACGTACTACGGAGTCACCTAGTGCAG,7590 fluorescence intensity (a.u.)
9,ATTTCTCATCAAATTGGTTCTTATTGATCAAACTATAGTTCGGAGTCACCTAGTGCAG,4740 fluorescence intensity (a.u.)
10,TTAATAAATCTAGACTAATTTATTAATATCAATATAAATGCGGAGTCACCTAGTGCAG,16000 fluorescence intensity (a.u.)
11,CATTAATTGTGATACAGTACGTATAACTTTGTCAAAGCTACGGAGTCACCTAGTGCAG,46400 fluorescence intensity (a.u.)
12,ACCAATTAACTGCCATTACTAAGGAACTACTCTCTCTATTCGGAGTCACCTAGTGCAG,21100 fluorescence intensity (a.u.)
13,TATAAATAATAAATCATCAATATGAATATAACCAATGCTACGGAGTCACCTAGTGCAG,5400 fluorescence intensity (a.u.)
14,TATTTAATTAGGTTAATGACCTTGGACTCCCATTGAGTATCGGAGTCACCTAGTGCAG,32600 fluorescence intensity (a.u.)
15,ATTTGCACAATCATGTGATGATTTGCAAATTTGCATACCGCGGAGTCACCTAGTGCAG,32400 fluorescence intensity (a.u.)
16,ATGAACGGTTAATTTGAATGAAATTCATTTCGGATTGCAGCGGAGTCACCTAGTGCAG,11100 fluorescence intensity (a.u.)
17,GGCAAATTGTCAAGGTTAACCGTAAATCTACAGTGCCAATCGGAGTCACCTAGTGCAG,15500 fluorescence intensity (a.u.)
18,ATTTAAATCTTTATAACAAATTATAAGTGATATGAAGATACGGAGTCACCTAGTGCAG,4340 fluorescence intensity (a.u.)
19,TCTGATTTTGAGAGGCTGTCAGAAATGCTCTTACAAGTTACGGAGTCACCTAGTGCAG,6820 fluorescence intensity (a.u.)
20,CGAGCTTTAATCAATTAATCTGGAGTTTAGTGAATATATTCGGAGTCACCTAGTGCAG,9200 fluorescence intensity (a.u.)
21,TTCTAATTAAATAATTATTATTTATCTTGTGTATATATATCGGAGTCACCTAGTGCAG,46500 fluorescence intensity (a.u.)

row,Sequence,binding signal
1,TGGCTAATTTTGAAGATGTAGATCACTCATGCGGCGGCACCGGAGTCACCTAGTGCAG,10000 fluorescence intensity (a.u.)
2,AACTGAGAGTATCTGATTGAAAATCTATACTGTTTGGGGACGGAGTCACCTAGTGCAG,21000 fluorescence intensity (a.u.)
3,GATAATTTTATAGTAAGATAGGATTAGTGCGATGAATATTCGGAGTCACCTAGTGCAG,6510 fluorescence intensity (a.u.)
4,AGTATGTATTAACGCATGATTAATTAAGTATTAGCTAATTCGGAGTCACCTAGTGCAG,8430 fluorescence intensity (a.u.)
5,AATCAATCAATATGCTACTCAAGATCTGGATCTTGTCTAGCGGAGTCACCTAGTGCAG,33000 fluorescence intensity (a.u.)
6,ATTCAATTTGTGTTAAATGATGATCAATATGAAACGGATGCGGAGTCACCTAGTGCAG,39000 fluorescence intensity (a.u.)
7,TATTATGATTTGATTTATCATCAAATGTTCTTTAAGCATGCGGAGTCACCTAGTGCAG,39100 fluorescence intensity (a.u.)
8,CGTACTGTACTGATTAATCTCGCTCGTTCGCTCCAGCATACGGAGTCACCTAGTGCAG,4300 fluorescence intensity (a.u.)
9,TATTGTGTATGATTGATTGTCATTCTTTCTTTGACTACATCGGAGTCACCTAGTGCAG,38900 fluorescence intensity (a.u.)
10,CTGTACTGATTGTTCACGGGTCGTTTCCGCACTATGGAACCGGAGTCACCTAGTGCAG,27900 fluorescence intensity (a.u.)
11,ACGACAGATTGACAGAATATACTACTCCATAACTTTTGAACGGAGTCACCTAGTGCAG,23100 fluorescence intensity (a.u.)
12,TAAGTCTATCTAATCATCAAACCGTTTTGCCATCAATTTGCGGAGTCACCTAGTGCAG,3740 fluorescence intensity (a.u.)
13,GGCAACGAGATGATTGATAGCCATGAGAACTGGCAATTTTCGGAGTCACCTAGTGCAG,25800 fluorescence intensity (a.u.)
14,AATAGATAGATAGATATCTTCGAAACTCCCGCCCGCCACCCGGAGTCACCTAGTGCAG,30600 fluorescence intensity (a.u.)
15,GTCCACATCCAATCACCTTCAAAATCCATCAGATTATCTGCGGAGTCACCTAGTGCAG,10300 fluorescence intensity (a.u.)
16,ATTTGTCTCTCTATCTTTAATTTATGATATATCCCCATATCGGAGTCACCTAGTGCAG,3480 fluorescence intensity (a.u.)
17,TATGCACAAATTATAATCATGTACAGTTACCCTCTGTTGCCGGAGTCACCTAGTGCAG,12300 fluorescence intensity (a.u.)
18,TATAGCTAATTGATGGGCACAATGCGAGTCGCATTTGCATCGGAGTCACCTAGTGCAG,38200 fluorescence intensity (a.u.)
19,GTTATGTTGATTGTGCCGCCCAAATATAGACTTGAACTCACGGAGTCACCTAGTGCAG,7520 fluorescence intensity (a.u.)
20,TAAACATAGATTACTAACAAAACTTATTCCATAACCCCTACGGAGTCACCTAGTGCAG,3400 fluorescence intensity (a.u.)
21,ATCAAAATTTAGTAAGATTTATTTTGGCTATAATCTGAACCGGAGTCACCTAGTGCAG,4650 fluorescence intensity (a.u.)

row,Sequence,binding signal
1,TCGTTAATTTACTAGTGACTTCAAATGGTTTACGCAATTACGGAGTCACCTAGTGCAG,19500 fluorescence intensity (a.u.)
2,CGGCCAATTACGTTTCGTTAGTCGTTAAAACAGTTAACACCGGAGTCACCTAGTGCAG,10100 fluorescence intensity (a.u.)
3,AATCTTGATTAAACATAAATAAGTTCGACTAGAAGAAAGACGGAGTCACCTAGTGCAG,4120 fluorescence intensity (a.u.)
4,ATGATTTGTTCAGATCCATAGTAACAGAATAAGCTGCAACCGGAGTCACCTAGTGCAG,10500 fluorescence intensity (a.u.)
5,CGAACAAGCTGATTAACATGCATGATTTCCTAGTATTTCCCGGAGTCACCTAGTGCAG,8230 fluorescence intensity (a.u.)
6,ACATCAAAATTGGTAGTTTGGTTGAAATTAGAACGATGTGCGGAGTCACCTAGTGCAG,4660 fluorescence intensity (a.u.)
7,GGCCTTCCAGCAAAATACCAATCAAGAATTGAGTACCTAGCGGAGTCACCTAGTGCAG,3850 fluorescence intensity (a.u.)
8,TAATAAATTTGTCTCGCAATTTATAGGCGGAATCTGTAATCGGAGTCACCTAGTGCAG,8200 fluorescence intensity (a.u.)
9,TGTATGATTTATGTATAATTAGAGATATACAATCATATAACGGAGTCACCTAGTGCAG,16900 fluorescence intensity (a.u.)
10,GTTAGATTTATGTAATGAATAATTTGAAACTATTCCTCCTCGGAGTCACCTAGTGCAG,27300 fluorescence intensity (a.u.)
11,TTAATTTATTTGATGACTGGGGTGTCACGTAAGCGCCACGCGGAGTCACCTAGTGCAG,37000 fluorescence intensity (a.u.)
12,TCACATAAATAATCATTAACAAATTATAAAATTAGTACGACGGAGTCACCTAGTGCAG,14800 fluorescence intensity (a.u.)
13,TAAACAAATTGACAAATCCGCGAGATCCAATGAAGCACATCGGAGTCACCTAGTGCAG,46200 fluorescence intensity (a.u.)
14,CATGATTTTACTTTCTTTTCAGGTCTTAGGAGTGAGCTTCCGGAGTCACCTAGTGCAG,9930 fluorescence intensity (a.u.)
15,ATGAAAACAAACTCTTTGTGATTGGATAGTGGCCAGGGCACGGAGTCACCTAGTGCAG,25600 fluorescence intensity (a.u.)
16,GTAATATTATTGATTTATCCGTCGCTTTCGAAATGGGCACCGGAGTCACCTAGTGCAG,22000 fluorescence intensity (a.u.)
17,GTTTTGCCATTGAATTCTCTAATTGACAATTTAACATGCACGGAGTCACCTAGTGCAG,21100 fluorescence intensity (a.u.)
18,TTGATGACTTAATAAAATTTTGACAGTGCTAAAAGTTACCCGGAGTCACCTAGTGCAG,23400 fluorescence intensity (a.u.)
19,CTACTGGAGTAGATTGGTAGTTACTTGTATATGAGCATGCCGGAGTCACCTAGTGCAG,8700 fluorescence intensity (a.u.)
20,TCATATAATTGGATTTATAATTAATCACCAATACCAAACTCGGAGTCACCTAGTGCAG,35300 fluorescence intensity (a.u.)
21,AAGATGTGAAATTTAATAAATTATCATCTATAGTCGATGACGGAGTCACCTAGTGCAG,6380 fluorescence intensity (a.u.)

# Source: PMC7819943, “Rice protein-binding microarrays: a tool to detect cis-acting elements near promoter regions in rice”
